# Measured values: PubChem BioAssay AID894 (National Center for Advancing Translational Sciences (NCATS), 2007)
# Values joined by “and” are separate entries in the source; they are usually repeats but may differ in a detail not shown here. Equal entries are not always repeated. In all, about 150,000 compounds went through this assay and about 6,500 (4.3%) were called active. About 12% were inconclusive and are not listed. Calls follow the shape of the dose curve; as a rule, active = well fitted inhibition curve with a large enough effect (not every such curve was filed as active); inconclusive = small, poorly fitted or top-dose-only effect, or another doubt; inactive = no such curve, though single readings can be large or run the other way. The list shows a part of the results, in another mix than the full data. A structure can be active in one record and inactive in another.
# Target: 15-hydroxyprostaglandin dehydrogenase [NAD(+)] (Homo sapiens) (UniProt P15428)
# UniProt P15428, sequence (P15428 whole entry, looked up): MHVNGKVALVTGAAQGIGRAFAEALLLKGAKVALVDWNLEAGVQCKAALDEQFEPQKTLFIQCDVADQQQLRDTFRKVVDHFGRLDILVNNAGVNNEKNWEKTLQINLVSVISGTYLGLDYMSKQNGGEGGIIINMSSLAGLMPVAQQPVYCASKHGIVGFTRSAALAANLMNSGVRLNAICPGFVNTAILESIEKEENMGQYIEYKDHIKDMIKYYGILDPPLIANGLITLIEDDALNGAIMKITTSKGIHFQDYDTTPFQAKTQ
# Assay: qHTS Assay for Inhibitors of HPGD (15-Hydroxyprostaglandin Dehydrogenase)
# Conditions: purified HPGD, NADH fluorescence kinetic, PGE2 substrate; activity change, negative = inhibition: hits give low values
# How it was run: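 NADH formation kinetics: reaction with 30 uM PGE2 and 1 mM NAD+ (final), 20 nM enzyme, Tris-HCl pH 8 with Tween 20, after 15 min compound preincubation at room temperature. Fluorescence change, last versus first of five reads.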
# % is scaled to controls: 0 for no effect and ±100 for the full control effect; potency is read from the fitted curve at half-maximal effect.
Compound,Potency,"activity change, negative = inhibition"
CCCCCC(=O)Nc1sc(C)c(C)c1C#N,active: 25.1 µM,–
COc1ccc2[nH]c(=S)[nH]c2c1,active: 28.2 µM,–
Cc1cc(SCC(=O)N/N=C/c2ccc(O)c(O)c2O)c(C)cc1Br,active: 10 µM,–
Cc1noc(/C=C/c2ccco2)c1S(=O)(=O)N1CCC(C(=O)NCc2ccco2)CC1,–,inactive: 30.5%
C=CCN(CC=C)c1cnn(-c2nc3ccccc3[nH]2)c(=O)c1Cl,–,inactive: 215%
CCCCCCc1ccc(O)cc1O,–,inactive: -13.3% and inactive: -26.3%
COc1cc2c(cc1OC)CN(c1ccc(-c3ccccc3OC)nn1)CC2,active: 35.5 µM,–
NC(=O)c1c(NC(=O)CSc2nnc(-c3ccco3)n2-c2ccccc2)sc2c1CCC2,active: 28.2 µM,–
COc1ccc(NC(=S)NCc2ccc(S(N)(=O)=O)cc2)c(OC)c1,active: 14.1 µM,–
O=C(COC(=O)c1ccc(S(=O)(=O)N2CCOCC2)cc1)Nc1nc(-c2ccccc2)cs1,–,inactive: 81.9%
Cc1coc(NC(=O)CSc2nc(-c3ccc(Cl)cc3)cc(C(F)(F)F)c2C#N)n1,–,inactive: 39.6%
CCOc1ccccc1NC(=O)C(OC(=O)c1ccccc1O)c1ccccc1 (stereo not drawn),–,inactive: 48.4%
Cn1cccc1C(=O)N1CCC2(CC1)CCN(c1ccccc1)CC2,–,inactive: -6.59%
Cc1cccc(CNc2nc(-c3c(C)noc3C)nc3ccccc23)c1,–,inactive: 62.4%
Cn1c(-c2ccc3c(c2)OCO3)cnc1NCc1ccccc1,active: 15.8 µM,–
CC(C)Cn1c(N)c(C(=O)COC(=O)c2cc(C(F)(F)F)nc3ccccc23)c(=O)n(C)c1=O,–,inactive: -18.3%
CCNC(=O)/C(=C\c1ccc2c(c1)OCO2)NC(=O)c1ccc(Br)cc1,–,inactive: -1.75%
CN1CCN2c3ccccc3Cc3ccccc3[C@@H]2C1,–,inactive: -8.29% and inactive: -16.1%
CCCc1c(C)c2ccc(OCC(C)=O)cc2oc1=O,–,inactive: 190%
CCCC[C@H]1C(=O)N(c2ccccc2)N(c2ccc(O)cc2)C1=O,–,inactive: -29%
COc1cccc(/C=N/NC(=O)c2ccc(COc3ccc(Cl)cc3Cl)o2)c1,–,inactive: 32.2%
Cc1[nH]c(=O)c(C#N)cc1-c1ccncc1,–,inactive: -6.51% and inactive: -18.6%

Compound,Potency,"activity change, negative = inhibition"
O=C1CCCN1c1ccc(S(=O)(=O)Oc2ccc(Cl)cc2)cc1[N+](=O)[O-],active: 7.94 µM,–
CC1(C)S[C@H]2[C@@H](NC(=O)C(N)c3ccccc3)C(=O)N2[C@H]1C(=O)O (stereo partly drawn),–,inactive: -29.2%
COc1ccc(C2C(=O)c3ccccc3C2=O)cc1,–,inactive: -13.2%
CCOc1cc(/C=C/c2nc3cc(C)c(C)cc3s2)ccc1OCC(=O)N1CCOCC1,–,inactive: 278%
CC(=O)c1cc2c(cc1NC(=O)CN1CCN(c3cccc(C(F)(F)F)c3)CC1)OCO2,–,inactive: 55.7%
CN(C)C(=O)c1ccc(-c2nc(NCc3cccs3)c3ccccc3n2)cc1,active: 15.8 µM,–
COCCCN(C(=O)c1ccco1)c1nc(-c2cc(OC)ccc2OC)cs1,–,inactive: 50.9%
Cc1ccccc1Nc1nnc(SCc2cc([N+](=O)[O-])cc3c2OCOC3)s1,active: 14.1 µM,–
Nc1ccc(-c2cc(-c3cccc(N)c3)nc(-c3ccccc3)n2)cc1,–,inactive: 60.2%
Cn1c(=O)c(C(=O)COC(=O)c2cc(C(F)(F)F)nc3ccccc23)c(N)n(Cc2ccccc2)c1=O,–,inactive: -20.1%
CCCCCCCCCCCCOS(=O)(=O)O,–,inactive: -2.39%
O=C(CCn1nnc(-c2cccs2)n1)N1CCc2ccccc2C1,active: 15.8 µM,–
Cc1ccccc1/C(N)=N/OC(=O)N1c2ccccc2Sc2ccccc21,active: 17.8 µM,–
O=C(/C=C/c1ccco1)NC(=S)Nc1cccc([N+](=O)[O-])c1,active: 17.8 µM,–
Cc1cc(O)ccc1Nc1nc(-c2sc(N)nc2C)cs1,active: 15.8 µM,–
CCOC(=O)c1c(CN2CCCCC2)oc2ccc(OC)cc12,–,inactive: -18.2%
O=C(O)c1ccccc1Nc1ccccc1,–,inactive: -20%
O=C(c1ccc(CNc2c(N3CCCC3)c(=O)c2=O)cc1)N1CCc2ccccc2C1,active: 3.55 µM,–
COc1ccc(N=Cc2nc(-c3ccccc3)oc2OC(=O)c2ccccc2)cc1,active: 22.4 µM,–
O=C(O)c1cc(O)c2c(c1)C(=O)c1cc(O)cc(O)c1C2=O,active: 14.1 µM,–
Cc1ccc(C(=O)N/C(=C\C=C\c2ccccc2)C(=O)NCc2ccco2)cc1,–,inactive: -17.2%
Cc1ccc(C(=O)NCc2ccc(Cl)cc2)o1,active: 14.1 µM,–

Compound,Potency,"activity change, negative = inhibition"
Cn1c(N)cc(=O)n(Cc2ccccc2)c1=O,–,inactive: -7.02%
Clc1ccc(-c2cc3ccccc3[nH]2)cc1,–,inactive: 48.7%
Cc1ccc(OCc2nc(-c3ccccn3)no2)c(Br)c1,active: 17.8 µM,–
O=C1Nc2ccc(I)cc2/C1=C/c1cc(Br)c(O)c(Br)c1,active: 7.94 µM and active: 3.55 µM,–
CCCCSc1nnc(CSc2nc3nc(C)cc(C)n3n2)o1,active: 25.1 µM,–
Cn1nnnc1SCC1=C(C(=O)O)N2C(=O)[C@@H](NC(=O)[C@@H](O)c3ccccc3)[C@@H]2SC1,–,inactive: -15.3%
Cc1cccc(Cn2cnc3c(nnn3Cc3ccc(Cl)cc3)c2=O)c1,active: 12.6 µM,–
O=C(N/C(=C/c1ccc(Br)cc1)c1nc2ccccc2[nH]1)c1ccco1,–,inactive: -22%
O=C(c1ccc(-n2cnnn2)cc1)N1CCCCC1,active: 15.8 µM,–
COC(=O)Cc1c(C)c2ccc(OC(=O)c3ccco3)cc2oc1=O,–,inactive: 120%
COc1cccc(/C=N/n2c(N)c(S(=O)(=O)c3cccs3)c3nc4ccccc4nc32)c1OC,–,inactive: 147%
CC(=O)c1cc2c(cc1NC(=O)CN1CCC(Cc3ccccc3)CC1)OCO2,–,inactive: 100%
O=C(O)Cc1cc(I)c(Oc2ccc(O)c(I)c2)c(I)c1,–,inactive: -20.9%
O=C(N/N=C/C(Cl)=C\c1ccccc1)c1cnccn1,–,inactive: -7%
O=C(NC1CC1)c1ccc(F)cc1Cl,active: 20 µM,–
COc1ccccc1NC(=O)c1sc2ncn(Cc3cccc4ccccc34)c(=O)c2c1C,–,inactive: 275%
CN1CCC[C@H]1c1cccnc1,–,inactive: -3.18% and inactive: 6.49% and inactive: -17.6%
CC(Cc1ccccc1)C(=O)N(C)Cc1ccccc1 (stereo not drawn),–,inactive: -12.5%
CN(C)c1ccc(/C=C2\C(=O)Nc3ccccc32)cc1,–,inactive: -22.9%
COc1ccc(-c2cc(C(=O)N/N=C/c3ccc4c(c3)OCO4)c3ccccc3n2)c(OC)c1,–,inactive: 55.2%
C[C@H]1c2cccc(O)c2C(O)=C2C(=O)[C@]3(O)C(O)=C(C(N)=O)C(=O)[C@@H](N(C)C)[C@@H]3[C@@H](O)[C@@H]21,–,inactive: -18.1%
O=C(c1cc2nc(C3CC3)cc(C(F)F)n2n1)N1CCOCC1,active: 31.6 µM,–

Compound,Potency,"activity change, negative = inhibition"
COc1ccc(S(=O)(=O)N(CCCN2CCCC2=O)Cc2cc3c(C)ccc(C)c3[nH]c2=O)cc1,–,inactive: 85.8%
COc1cccc(-n2c(SCC(=O)OC(C)C)nnc2-c2cccnc2)c1,active: 22.4 µM,–
COc1ccc(Br)cc1C(=O)Nc1ccc(N2CCN(S(C)(=O)=O)CC2)cc1,–,inactive: 36.3%
C#CCn1c(=NC(=O)c2ccc(Cl)s2)sc2cccc(OC)c21,–,inactive: 148%
COC(=O)c1sc2ccccc2c1NC(=O)c1ccc(S(=O)(=O)N2CC(C)CC(C)C2)cc1 (stereo not drawn),–,inactive: 788%
COC(=O)CNC(=O)C1(C)C=CCN1C(=O)c1ccccc1 (stereo not drawn),–,inactive: -15.2%
COc1ccc(S(=O)(=O)N(CCCN2CCCC2=O)Cc2cc3cc(C)c(C)cc3[nH]c2=O)cc1,–,inactive: 44.6%
O=C(CSc1ccc(-c2ccc(F)cc2)nn1)N1CCCCC1,active: 15.8 µM,–
CC1CCCN(c2ccc(C(=O)OCn3nnc4ccccc4c3=O)cc2[N+](=O)[O-])C1 (stereo not drawn),active: 15.8 µM,–
Cc1cc(-c2ccc(Cl)cc2)c(C#N)c(N)n1,–,inactive: 43.3%
COc1ccc2c(c1)C(=O)[C@H](O)[C@@H](c1ccc(OC)c(Br)c1)O2,–,inactive: -13.4%
N[C@H](Cc1cc(I)c(Oc2ccc(O)c(I)c2)c(I)c1)C(=O)O,–,inactive: -3.02%
C[C@H]1[C@@H](O)[C@@H](C)\C=C/C=C\C=C/C=C\C=C/C=C\C=C/[C@@H](O[C@H]2O[C@@H](C)[C@@H](O)[C@@H](N)[C@@H]2O)C[C@@H]2O[C@](O)(C[C@@H](O)C[C@@H](O)[C@@H](O)CC[C@@H](O)C[C@@H](O)CC(=O)O[C@H]1C)C[C@@H](O)[C@H]2C(=O)O (stereo in doubt),–,inactive: -4.08%
COC1=CC(=O)C[C@@H](C)[C@]12Oc1c(Cl)c(OC)cc(OC)c1C2=O,–,inactive: -17.2%
COc1ccc(Br)c(C(=O)NCCC(C)C)c1,active: 12.6 µM,–
O=C(Nc1ccccn1)c1ccc([N+](=O)[O-])o1,–,inactive: 142%
COc1ccccc1N(CC(O)Cn1c2ccccc2c2ccccc21)S(=O)(=O)c1ccccc1 (stereo not drawn),–,inactive: 890%
O=c1[nH]c(C(F)(F)F)nc2c1nnn2Cc1ccccc1F,active: 17.8 µM,–
O=C(O)CCCCCCCCCC(=O)c1cccs1,active: 15.8 µM,–
Cc1cccc(NC(=O)/C(C#N)=C/c2cn(CC(=O)NCc3ccco3)c3ccccc23)c1C,–,inactive: 48.5%
O=C(N/N=C/C(Br)=C/c1ccccc1)c1n[nH]c2c1CCC2,–,inactive: -17.9%
CCOC(=O)c1oc2ccccc2c1NC(=O)c1ccc2c(c1)OCO2,–,inactive: 75.1%
